# Results taken from PubChem BioAssay AID588591 (National Center for Advancing Translational Sciences (NCATS), 2011).
# The whole screen tested about 390,000 compounds, of which about 4,700 (1.2%) were called active. This list was built around the results that the source calls inconclusive (neither active nor inactive); the mix of calls is not that of the screen. Calls follow the shape of the dose curve; as a rule, active = well fitted inhibition curve with a large enough effect; inconclusive = small, poorly fitted or top-dose-only effect, or another doubt; inactive = no such curve, though single readings can be large or run the other way. Potencies of inconclusive entries are doubtful fits and often do not repeat.
# Biological target: DNA polymerase eta (Homo sapiens) (UniProt Q9Y253)
# Assay: qHTS for Inhibitors of Polymerase Eta
# Conditions: recombinant Pol eta, fluorescent DNA replication assay; series mostly up to 114 µM; activity change, negative = inhibition: at the top concentration
# Procedure, shortened: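 Fluorescent replication assay: 50 nM final substrate added after a 15 min room-temperature compound preincubation with 10 nM enzyme. Signal taken at 0 min and again at 10 min.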
# % is scaled to controls: 0 for no effect and ±100 for the full control effect; potency is read from the fitted curve at half-maximal effect; tags tell the direction and shape of the fitted curve.
# Chain of UniProt Q9Y253 (Q9Y253 whole entry, looked up): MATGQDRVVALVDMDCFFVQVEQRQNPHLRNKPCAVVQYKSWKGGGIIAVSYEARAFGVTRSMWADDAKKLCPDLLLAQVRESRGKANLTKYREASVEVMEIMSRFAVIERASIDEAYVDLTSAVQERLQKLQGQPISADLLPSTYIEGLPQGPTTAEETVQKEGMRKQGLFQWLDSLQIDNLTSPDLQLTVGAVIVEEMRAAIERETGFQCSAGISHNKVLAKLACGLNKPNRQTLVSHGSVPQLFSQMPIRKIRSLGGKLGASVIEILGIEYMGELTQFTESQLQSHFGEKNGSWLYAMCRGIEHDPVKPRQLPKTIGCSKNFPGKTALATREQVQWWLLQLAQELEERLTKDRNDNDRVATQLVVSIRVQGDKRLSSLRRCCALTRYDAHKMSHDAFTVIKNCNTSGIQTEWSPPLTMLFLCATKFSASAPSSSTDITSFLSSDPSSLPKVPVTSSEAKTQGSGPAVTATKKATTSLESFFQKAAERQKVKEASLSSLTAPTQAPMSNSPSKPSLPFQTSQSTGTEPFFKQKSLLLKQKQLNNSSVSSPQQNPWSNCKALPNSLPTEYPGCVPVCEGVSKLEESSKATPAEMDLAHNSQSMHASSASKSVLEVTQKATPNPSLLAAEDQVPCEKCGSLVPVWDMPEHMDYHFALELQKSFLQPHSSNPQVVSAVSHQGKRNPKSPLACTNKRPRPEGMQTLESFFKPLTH
SMILES,Potency,"activity change, negative = inhibition"
O=C(NCc1ccccc1C(F)(F)F)c1cccc2c1C(=O)c1ccc(N3CCC(N4CCCCC4)CC3)cc1S2(=O)=O,"inconclusive: 56.2 µM [inhibitor, partial curve, poor fit]",–
CS(=O)(=O)c1ccc(S(=O)CC(=O)OCc2ccccc2)c([N+](=O)[O-])c1 (centres undefined),–,inactive: -3.85%
CCn1nc(C)c2c(-c3ccccc3)cc(=O)n(C(C)C(=O)NCCC(C)C)c21 (centres undefined),–,inactive: -10.6%
C=CCn1c(C)cc(C(=O)Cn2ncc(Cl)c(Cl)c2=O)c1C,active: 28.2 µM,–
O=S(=O)(Nc1ccc2c3c(cccc13)CC2)c1ccc(F)cc1,"inconclusive: 50.1 µM [inhibitor, partial curve, poor fit]",–
Cc1nc(CC(=O)NNS(=O)(=O)c2ccc3ccccc3c2)cs1,–,inactive: -27.8%
Cc1ccc2[nH]c(=O)c(-c3nc4cc(C)ccn4c3NCc3ccco3)cc2c1,"inconclusive: 4.47 µM [inhibitor, partial curve, poor fit]",–
CCOC(=O)c1ccc(N2C(=O)c3[nH]nc(-c4ccccc4)c3C2c2ccc(CC)cc2)cc1 (centres undefined),"inconclusive: 100 µM [inhibitor, partial curve, poor fit]",–
O=C(NCc1cccs1)c1ccc2c(=O)n3nc(Nc4ccccc4)sc3nc2c1,"inconclusive: 63.1 µM [inhibitor, partial curve, poor fit]",–
O=C(CCN1C(=O)/C(=C\C=C\c2ccccc2)SC1=S)Nc1ccccc1C(=O)O,active: 25.1 µM,–
COc1ccc(Nc2nnc(SCc3cc(=O)n4ccsc4n3)s2)cc1,"inconclusive: 70.8 µM [inhibitor, partial curve]",–
C/C(=N\NC(=O)c1ccc(Br)cc1)C1C(=O)c2ccccc2C1=O,–,inactive: -17.4%
O=C(Nc1ccc(C(=O)O)cc1)/C(=C\c1ccco1)NC(=O)c1ccc(Br)o1,active: 50.1 µM,–
COc1ccc(C2c3c(-c4ccccc4O)n[nH]c3C(=O)N2CCc2ccc(OC)c(OC)c2)cc1 (centres undefined),"inconclusive: 44.7 µM [inhibitor, partial curve, poor fit]",–
O=C(O)CCc1ccc(-c2ccc(Cl)cc2)n1CCC(=O)O,"inconclusive: 89.1 µM [inhibitor, single point]",–
O=C(CSc1nccn1Cc1ccccc1)NCc1ccco1,–,inactive: -13%
O=C(COC(=O)Cn1cc(C(F)(F)F)ccc1=O)Nc1ccccc1,"inconclusive: 89.1 µM [inhibitor, single point]",–
C=CCc1cc(C=O)cc(OC)c1OCc1ccc(C(=O)O)cc1,"inconclusive: 50.1 µM [inhibitor, partial curve]",–
CC(C)(C)NC(=O)Cn1c(=O)oc2ccc(Cl)cc21,"inconclusive: 89.1 µM [inhibitor, partial curve, poor fit]",–
CCCCC1=CC2=C(c3ccco3)C(=O)C(C)(OC(=O)c3ccc(OC)cc3)C(=O)C2=CN1Cc1ccccc1 (centres undefined),active: 50.1 µM,–
COc1cc2c(cc1[N+](=O)[O-])-c1ccc([N+](=O)[O-])cc1C2=NNC(N)=S,active: 10 µM,–
COc1cc(OC)c(Nc2nc3ccccc3c3nncn23)cc1Cl,–,inactive: -2.02%
O=C(NCCc1ccc(Cl)cc1)c1cnc2sc(N3CCOCC3)nn2c1=O,–,inactive: -3.89%

SMILES,Potency,"activity change, negative = inhibition"
COc1cccc(-c2nc(Oc3cccc(C)c3C)c3ccccc3n2)c1O,"inconclusive: 1.26 µM [inhibitor, full curve, poor fit]",–
CCCNC(=O)NNC(=O)c1cc(-c2ccc3c(c2)OCO3)nc2ccccc12,"inconclusive: 25.1 µM [inhibitor, partial curve, poor fit]",–
Cc1ccc(C)c2sc(NC(=O)c3ccc(S(=O)(=O)N4CCC(C)CC4)cc3)nc12,–,inactive: -20.9%
CC(/C=N/NC(=O)c1cc(-c2ccncc2)nc2ccccc12)=C\c1ccco1,"inconclusive: 70.8 µM [inhibitor, partial curve]",–
CCOc1ccc(NC(=O)CC2C(=O)N(c3ccc(F)cc3)C(=O)N2Cc2ccc(OC)c(OC)c2)cc1 (centres undefined),–,inactive: -14.1%
CC(C)CC1C(=O)N(Cc2cn(Cc3ccco3)nn2)CCS(=O)(=O)N1Cc1ccc(-c2cccc(CO)c2)cc1 (centres undefined),"inconclusive: 11.2 µM [inhibitor, partial curve]",–
O=C(Oc1ccc(N(C(=O)c2ccncc2)S(=O)(=O)c2ccc(Cl)cc2)cc1)c1ccncc1,–,inactive: -17.2%
CCOCCCN(Cc1ccco1)S(=O)(=O)c1cc2c(cc1Cl)NC(=O)CO2,active: 79.4 µM,–
Cc1ccc(C(C)C)c(OCCSc2nc(-c3ccccc3F)nc3cc(=O)[nH]n23)c1,"inconclusive: 89.1 µM [inhibitor, single point]",–
O=C(COC(=O)/C(=C/c1cccs1)c1cccs1)NC(c1ccccc1)c1ccccc1,"inconclusive: 8.91 µM [inhibitor, partial curve]",–
CC1CCC(NC(=O)c2ccc3nc[nH]c3c2)CC1 (centres undefined),"inconclusive: 31.6 µM [inhibitor, single point]",–
NC(=O)c1nn2c(C(F)(F)F)cc(-c3ccccc3)nc2c1Br,"inconclusive: 89.1 µM [inhibitor, partial curve]",–
Cc1ccc2nc(-c3ccc(NC(=O)CSc4nccc(=O)[nH]4)cc3)sc2c1,–,inactive: -17.4%
COc1cc(C2NC(=O)NC(C)=C2C(=O)OC2CCC(C)CC2)ccc1O (centres undefined),"inconclusive: 100 µM [inhibitor, partial curve, poor fit]",–
COc1cccc(N2CC(C(=O)Nc3nnc(SCC(=O)c4ccccc4)s3)CC2=O)c1 (centres undefined),"inconclusive: 22.4 µM [inhibitor, single point]",–
O=C(COC(=O)/C=C/c1ccco1)Nc1ncc(Cl)cc1Cl,active: 39.8 µM,–
Cc1noc(/C=C/c2cccnc2)c1[N+](=O)[O-],–,inactive: -10.1%
Cc1ccc(NC(=O)Cc2ccc(Cl)cc2)cc1S(=O)(=O)N1CCCCCC1,"inconclusive: 79.4 µM [inhibitor, partial curve, poor fit]",–
CCOC(=O)Cn1c(=O)cc(-c2ccccc2)c2c(C)nn(C)c21,–,inactive: -10.9%
Cc1ccc(NC(=O)CN(C)C(=O)c2cc(-c3ccco3)nc3ccccc23)cc1,active: 20 µM,–
COc1ccc2oc(C(=O)OC(C)C(=O)Nc3ccc(N4CCOCC4)cc3)c(C)c2c1 (centres undefined),"inconclusive: 22.4 µM [inhibitor, partial curve, poor fit]",–
COc1ccc(N2CCN(c3nc(-c4ccccc4F)nc4ccccc34)CC2)cc1,–,inactive: -28%
O=C(O)c1ccccc1-c1ccccc1C(=O)Nc1ccc2c(c1)[nH]c(=O)c1ccccc12,active: 50.1 µM,–

SMILES,Potency,"activity change, negative = inhibition"
N#Cc1ccccc1NC(=O)c1cc(=O)c2ccccc2o1,"inconclusive: 89.1 µM [inhibitor, single point]",–
Cc1cc(=O)[nH]c(SCC(=O)Nc2nc(-c3ccccc3)cs2)n1,"inconclusive: 39.8 µM [inhibitor, single point]",–
O=C(COC(=O)c1ccc(NS(=O)(=O)c2cccs2)cc1)NCc1ccco1,active: 3.98 µM,–
CC1(N2CCOCC2)CC2(O)C(=[N+]1[O-])CCc1c2no[n+]1[O-] (centres undefined),active: 17.8 µM,–
Cc1nnc(-c2ccco2)c2cn(-c3cccc(Br)c3)nc12,"inconclusive: 50.1 µM [inhibitor, partial curve, poor fit]",–
Nn1c(SCC(=O)Nc2nc3ccccc3s2)nncc1=O,"inconclusive: 39.8 µM [inhibitor, partial curve, poor fit]",–
CCOC(=O)c1c(NC(=O)CSc2nc3ccccc3o2)sc(C(C)=O)c1C,"inconclusive: 31.6 µM [inhibitor, partial curve, poor fit]",–
CN(CCC#N)c1ccc(/C=C(\C#N)c2ccccn2)cc1,"inconclusive: 31.6 µM [inhibitor, partial curve, poor fit]",–
COCCNC(=O)c1ccc(NS(C)(=O)=O)cc1,–,inactive: -2.6%
Cc1csc(NC(=O)c2ccncc2)n1,"inconclusive: 56.2 µM [inhibitor, partial curve, poor fit]",–
O=C1C=C(N(CCO)Cc2ccccc2)c2ccccc2C1=O,active: 20 µM,–
CCN1CCCC1CNc1ncnc2c1[nH]c1ccc(F)cc12 (centres undefined),"inconclusive: 79.4 µM [inhibitor, single point]",–
Cn1cc([C@@H]2C[C@H]3CN(Cc4cccc(Cl)c4)C(=O)[C@]34CCCN24)c2ccccc21,"inconclusive: 89.1 µM [inhibitor, partial curve, poor fit]",–
Nc1c(C(=O)NC2CC2)sc2nc3c(c(-c4ccco4)c12)CC/C3=C/c1ccco1,active: 0.708 µM,–
O=C1OC(c2ccccc2)(c2cc(Br)c(O)c(Br)c2)c2ccccc21 (centres undefined),"inconclusive: 89.1 µM [inhibitor, single point]",–
COc1ccc(Br)cc1/C=C/C(=O)NC(=S)Nc1ccc(Cl)c(C(=O)O)c1,active: 25.1 µM,–
CC(=O)Oc1ccc(Cl)cc1/C=C/c1ccc2ccccc2n1,–,inactive: -21.8%
CCN(CCn1cccn1)C(=O)c1ccc2nc(Cc3ccc(OC)cc3)oc2c1,–,inactive: -5.38%
CCN(CCCNC(=O)c1cc2cc3cc(C)ccc3nc2s1)c1cccc(C)c1,–,inactive: -18.5%
Cc1cc(NS(=O)(=O)c2ccc(NC(=O)c3ccoc3C)cc2)nc(C)n1,"inconclusive: 39.8 µM [inhibitor, partial curve, poor fit]",–
CC1CCN(C(=O)CCCOc2ccc(Cl)cc2)CC1,"inconclusive: 0.631 µM [inhibitor, full curve, poor fit]",–
O=C1NC(=S)S/C1=C\c1cc(Cl)cc(Cl)c1O,active: 35.5 µM,–
Cc1occc1C(=O)NCc1ccco1,"inconclusive: 11.2 µM [inhibitor, partial curve, poor fit]",–
